{"source": "PubChem BioAssay AID463254", "about": "(National Center for Advancing Translational Sciences (NCATS), 2010)", "note": "About 40 (0.01%) of roughly 330,000 compounds were called active. The inconclusive results got no clear call from the source; some entries with a clear call stand among them for comparison. Calls follow the shape of the dose curve; as a rule, active = well fitted inhibition curve with a large enough effect; inconclusive = small, poorly fitted or top-dose-only effect, or effect the other way; inactive = flat fitted curve, though single readings scatter. Potencies of inconclusive entries are doubtful fits and often do not repeat. Potency is read from the fitted curve at half-maximal effect; tags tell the direction and shape of the fitted curve or compound fluorescence and quenching.", "data": [{"molecular_target": "Ubiquitin carboxyl-terminal hydrolase 2 (Homo sapiens) (UniProt O75604)", "sequence (O75604 whole entry, looked up)": "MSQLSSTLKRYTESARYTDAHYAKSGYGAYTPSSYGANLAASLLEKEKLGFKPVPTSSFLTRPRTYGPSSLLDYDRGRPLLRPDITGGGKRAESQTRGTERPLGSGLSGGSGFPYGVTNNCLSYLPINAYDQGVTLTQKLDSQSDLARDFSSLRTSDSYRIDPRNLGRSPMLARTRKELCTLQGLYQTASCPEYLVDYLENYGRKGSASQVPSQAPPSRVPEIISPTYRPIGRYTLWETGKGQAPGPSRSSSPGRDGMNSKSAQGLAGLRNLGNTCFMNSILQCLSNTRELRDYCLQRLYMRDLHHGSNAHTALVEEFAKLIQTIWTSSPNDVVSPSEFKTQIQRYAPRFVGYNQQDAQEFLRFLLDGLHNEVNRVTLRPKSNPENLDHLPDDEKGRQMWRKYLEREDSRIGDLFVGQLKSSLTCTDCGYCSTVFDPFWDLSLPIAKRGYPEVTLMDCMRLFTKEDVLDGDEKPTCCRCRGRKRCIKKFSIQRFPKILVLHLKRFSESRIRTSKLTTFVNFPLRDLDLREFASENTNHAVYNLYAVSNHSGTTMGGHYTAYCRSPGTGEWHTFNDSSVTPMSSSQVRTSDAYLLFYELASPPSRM", "test": "qHTS Assay for Inhibitors of Ubiquitin-specific Protease USP2a Using CHOP2 as the Reporter;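 as to activity change, negative = inhibition: plate controls were DMSO wells for no effect and full inhibition by NEM control for full effect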", "settings": "USP2 core, Ub-CHOP2 coupled fluorogenic reporter, 485/531; activity change, negative = inhibition: at 38.3 µM (top of the series)", "method_in_brief": "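Deubiquitinase activity read as fluorescence (485/531 nm) after Ub-CHOP2 cleavage activates the enterokinase reporter on its substrate; USP2 core 10nM, Ub-CHOP2 and substrate 25nM each, 30min compound preincubation then 60min RT; data normalized to NEM, curves fitted.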", "values": [{"smiles": "CCOC(=O)N1CCC(N(CCOC)C(=O)Nc2ccc(Cl)c(Cl)c2)CC1", "activity change, negative = inhibition": "inactive: 1.9%"}, {"smiles": "O=C(OCC1OC(n2ncc(=O)[nH]c2=O)C(OC(=O)c2ccccc2)C1OC(=O)c1ccccc1)c1ccccc1", "note": "(centres undefined)", "Potency": "inconclusive: 28.2 µM [falling, single point]"}, {"smiles": "COc1cccc(-n2c(SCc3cc(=O)oc4cc(O)c(O)cc34)nc3ccccc3c2=O)c1", "Potency": "inconclusive: 20 µM [falling, single point]"}, {"smiles": "COc1cc(C(CC(=O)N2CCCC2)c2c(OC)cc(OC)c3ccc(=O)oc23)cc(OC)c1OC", "note": "(centres undefined)", "Potency": "inconclusive: 28.2 µM [fluorescent, single point]"}, {"smiles": "COC(=O)Cn1cc(/C=C/c2cc[n+](C)cc2)c2ccccc21", "Potency": "inconclusive: 11.2 µM [fluorescent, partial curve]"}, {"smiles": "COc1ccccc1C1CC(=O)Oc2cc(C)c(Cl)cc21", "note": "(centres undefined)", "activity change, negative = inhibition": "inactive: -1.69%"}, {"smiles": "Cc1cccc(NC(=S)NCc2ccc3c(c2)cc(C)n3C)c1C", "Potency": "inconclusive: 20 µM [falling, single point]"}, {"smiles": "Cc1cccc(Nc2nc(NCc3ccco3)c3ccccc3n2)c1", "Potency": "inconclusive: 3.16 µM [falling, single point]"}, {"smiles": "COc1cc(N)c(Cl)cc1C(=O)OCC(=O)Nc1cccnc1Cl", "activity change, negative = inhibition": "inactive: -0.0859%"}, {"smiles": "Cc1cc(C)c2c3c(sc2n1)C(c1ccccc1)C(C#N)=C(N)O3", "note": "(centres undefined)", "Potency": "inconclusive: 28.2 µM [fluorescent, single point]"}, {"smiles": "O=S(=O)(Nc1ccc(O)c2ccccc12)c1cccs1", "activity change, negative = inhibition": "inactive: 0.54%"}, {"smiles": "CC1(C(=O)O)Sc2[nH]c(=O)sc2C2c3ccccc3OC(=O)C21", "note": "(centres undefined)", "Potency": "inconclusive: 5.01 µM [falling, single point]"}, {"smiles": "Cc1nn(-c2ccccc2)c(Cl)c1/C=N/Nc1ccc(S(=O)(=O)Nc2ccccc2C(=O)O)cc1[N+](=O)[O-]", "Potency": "inconclusive: 22.4 µM [falling, single point]"}, {"smiles": "Cc1ccccc1OCCn1nc(C(=O)O)c2ccccc2c1=O", "Potency": "inconclusive: 12.6 µM [falling, single point]"}, {"smiles": "CCc1c(C)sc(NC(=O)CN2CCN(C(=O)c3ccco3)CC2)c1C(=O)OC", "activity change, negative = inhibition": "inactive: 4.01%"}, {"smiles": "O=C(O)Cn1c(-c2ccccc2)nc2ccccc21", "activity change, negative = inhibition": "inactive: 0.494%"}, {"smiles": "O=S(=O)(c1cccc2nsnc12)N1CCOCC1", "Potency": "inconclusive: 14.1 µM [fluorescent, single point]"}, {"smiles": "COc1ccccc1N1C(=O)C2C(C(=O)c3ccccc3)=NN(c3ccc(C)cc3)C2C1=O", "note": "(centres undefined)", "Potency": "inconclusive: 28.2 µM [fluorescent, single point]"}, {"smiles": "CCOC(=O)c1cc(C(C)(C)C)oc1CN", "activity change, negative = inhibition": "inactive: 5.54%"}, {"smiles": "O=[N+]([O-])c1ccc(N2CCNCC2)c(S(=O)(=O)N2CCOCC2)c1", "activity change, negative = inhibition": "inactive: -0.0509%"}, {"smiles": "Cc1cc(O)c(C(=O)/C=C/c2ccccc2Br)c(=O)o1", "Potency": "inconclusive: 22.4 µM [falling, single point]"}, {"smiles": "COc1cccc(OC)c1C(=O)Nc1cccc(NC(=O)c2cccs2)c1", "activity change, negative = inhibition": "inactive: 3.41%"}, {"smiles": "O/C=c1\\ccc2cccc3nc(C(F)(F)F)nc1c23", "Potency": "inconclusive: 28.2 µM [falling, single point]"}, {"smiles": "O=C(O)C1=CC(=C(c2ccc(O)c(C(=O)O)c2)c2ccc(O)c(C(=O)O)c2)C=CC1=O", "Potency": "active: 1.12 µM"}, {"smiles": "C/C=C/C(=O)N1CC2(CC(c3cccc(NC(=O)CC(c4ccccc4)c4ccccc4)c3)=NO2)C[C@H]1C(N)=O", "note": "(some centres undefined)", "Potency": "inconclusive: 0.447 µM [fluorescent, full curve, poor fit]"}, {"smiles": "Cc1ccc(NC(=O)Cn2c(O)c(N=NC(=O)c3cc([N+](=O)[O-])ccc3O)c3ccccc32)cc1", "activity change, negative = inhibition": "inactive: 0.104%"}, {"smiles": "COc1cc2c(cc1OC)/C(=C/C(=O)c1cccc([N+](=O)[O-])c1)NCC2", "activity change, negative = inhibition": "inactive: -3.08%"}, {"smiles": "CCN(CC)CCNC(=O)c1ccc(NC(=O)c2ccc(Cl)c(S(=O)(=O)Nc3ccccc3OC)c2)cc1", "activity change, negative = inhibition": "inactive: 0.36%"}, {"smiles": "Cc1cc(C)cc(NC(=O)Cn2c(=O)oc3cc(S(=O)(=O)N4CC(C)CC(C)C4)ccc32)c1", "note": "(centres undefined)", "activity change, negative = inhibition": "inactive: -10.5%"}, {"smiles": "COc1cc(C2C3=C(CC(C)(C)CC3=O)NC3=C2C(=O)c2ccccc23)ccc1O", "note": "(centres undefined)", "activity change, negative = inhibition": "inactive: -0.324%"}, {"smiles": "CC(C)OCCCNc1nc2c([nH]1)c(=O)n(C)c(=O)n2C", "Potency": "inconclusive: 3.16 µM [falling, single point]"}, {"smiles": "CN(C)c1ccc(NC(=O)CSCc2nc3c(nnn3Cc3ccc(F)cc3)c(=O)[nH]2)cc1", "Potency": "inconclusive: 22.4 µM [falling, single point]"}, {"smiles": "COCCN(CCOC)Cc1c(O)ccc2c1O/C(=C\\c1ccco1)C2=O", "Potency": "inconclusive: 10 µM [fluorescent, single point]"}, {"smiles": "CC(C)C(C(=O)O)N1C(=O)/C(=C/C=C/c2ccco2)SC1=S", "note": "(centres undefined)", "Potency": "inconclusive: 28.2 µM [falling, single point]"}, {"smiles": "CCc1sc(/C=C(/C#N)C(N)=S)cc1[N+](=O)[O-]", "Potency": "inconclusive: 28.2 µM [falling, single point]"}, {"smiles": "Cc1[nH][nH]c(=O)c1C(c1ccc(-c2ccc(Cl)c(C(=O)O)c2)o1)c1c(C)[nH][nH]c1=O", "activity change, negative = inhibition": "inactive: 1.6%"}, {"smiles": "CCCCC(CC)CN=C(N)NC(N)=NCCCCCCN=C(N)NC(N)=NCC(CC)CCCC", "note": "(centres undefined)", "Potency": "inconclusive: 28.2 µM [falling, single point]"}, {"smiles": "CC(C)c1ccc(NC(=O)C(c2ccc3c(c2)OCO3)N2CCCCC2)cc1", "note": "(centres undefined)", "Potency": "inconclusive: 28.2 µM [falling, single point]"}, {"smiles": "CC1(c2nnc(-c3ccncc3)o2)CC(c2ccc([N+](=O)[O-])cc2)=NO1", "note": "(centres undefined)", "Potency": "inconclusive: 28.2 µM [fluorescent, single point]"}, {"smiles": "COc1ccc(NC(=O)CN(Cc2ccccc2)S(C)(=O)=O)cc1", "Potency": "inconclusive: 5.01 µM [falling, single point]"}, {"smiles": "COc1cccc(CC(=O)Nc2ccc(S(=O)(=O)Nc3nc(C)cc(C)n3)cc2)c1", "activity change, negative = inhibition": "inactive: 6.16%"}, {"smiles": "O=C(Nc1ccc(N2CCCC2)cc1)c1ccc(Br)cc1", "Potency": "inconclusive: 22.4 µM [falling, single point]"}, {"smiles": "CCOc1ccc2noc3c2c1C(=O)c1ccccc1-3", "Potency": "inconclusive: 7.08 µM [fluorescent, partial curve]"}, {"smiles": "O=C1C=C(NNC(=O)c2ccncc2)CC(c2ccccc2)C1", "note": "(centres undefined)", "Potency": "inconclusive: 14.1 µM [fluorescent, partial curve]"}, {"smiles": "COC(=O)CCC/C=C1/SCC(NC(=O)c2ccccc2)C1=O", "note": "(centres undefined)", "Potency": "inconclusive: 20 µM [falling, single point]"}, {"smiles": "O=C(Nc1nnc(-c2ccco2)s1)C1CCCCC1", "Potency": "inconclusive: 5.01 µM [falling, single point]"}, {"smiles": "Cc1ccc(C2C3CN(C(C)C)CC=C3C(C#N)=C(N)C2(C#N)C#N)cc1", "note": "(centres undefined)", "Potency": "inconclusive: 12.6 µM [fluorescent, single point]"}, {"smiles": "COc1ccc(OC)c(NC(=O)CSc2nc(O)cc(=O)n2CC(C)C)c1", "Potency": "inconclusive: 22.4 µM [falling, single point]"}, {"smiles": "Cc1nc2c(-c3ccc(Cl)cc3)cnn2c(N)c1-c1ccc(F)cc1", "activity change, negative = inhibition": "inactive: 2.84%"}, {"smiles": "Cc1ccc(N(CC(=O)Nc2ccc(S(=O)(=O)N3CCOCC3)cc2)S(C)(=O)=O)cc1C", "Potency": "inconclusive: 28.2 µM [falling, single point]"}, {"smiles": "COc1cccc(CN2CCN(c3ccc(F)cc3)C2=O)c1", "activity change, negative = inhibition": "inactive: 2.51%"}, {"smiles": "Cc1cnc(N)c2c(=O)oc3ccccc3c12", "Potency": "inconclusive: 4.47 µM [falling, single point]"}, {"smiles": "COc1ccc(-c2nnc(Nc3ccc(S(=O)(=O)Nc4nccs4)cc3)c3ccccc23)cc1", "Potency": "inconclusive: 12.6 µM [falling, single point]"}, {"smiles": "COc1ccc(OC)c(-c2c3cc(O)c(=O)cc-3oc3cc(O)c(O)cc23)c1", "Potency": "inconclusive: 20 µM [fluorescent, partial curve]"}, {"smiles": "O=C(O)c1cnn(-c2nc(-c3ccc(Cl)c(Cl)c3)cs2)c1C(F)(F)F", "activity change, negative = inhibition": "inactive: 2.66%"}, {"smiles": "Cn1c(=O)c(NCCc2ccccc2)c2c3c(cccc31)C(=O)c1ccccc1-2", "Potency": "inconclusive: 12.6 µM [fluorescent, partial curve]"}, {"smiles": "COC(=O)c1nnn(CC(=O)Nc2cccc(OC)c2)c1C(=O)OC", "activity change, negative = inhibition": "inactive: -8.69%"}, {"smiles": "CCNc1cccc2c1C(=O)N(C)C2=O", "Potency": "inconclusive: 14.1 µM [fluorescent, single point]"}, {"smiles": "CCn1nnnc1SCC(=O)Nc1cccc(C)n1", "Potency": "inconclusive: 2.82 µM [falling, single point]"}, {"smiles": "Cc1cc(SCC(=O)Nc2ccccc2)nc(C)n1", "Potency": "inconclusive: 3.98 µM [falling, single point]"}, {"smiles": "Cc1cc(C)n2cc(CSc3nnnn3-c3ccc(Cl)cc3)nc2n1", "activity change, negative = inhibition": "inactive: 1.21%"}, {"smiles": "CCOC(=O)NC(=O)/C(C#N)=C\\Nc1sccc1C(=O)OC", "Potency": "inconclusive: 20 µM [fluorescent, single point]"}, {"smiles": "COc1cc(C)c(S(=O)(=O)NCc2ccc3c(c2)OCO3)cc1C", "Potency": "inconclusive: 22.4 µM [falling, single point]"}, {"smiles": "C=CCNCCOCCOc1ccccc1-c1ccccc1", "Potency": "inconclusive: 28.2 µM [falling, single point]"}, {"smiles": "Nc1ccc2nc3c(=O)[nH]c(=S)[nH]c3nc2c1", "Potency": "inconclusive: 10 µM [fluorescent, partial curve]"}, {"smiles": "Cc1cccc2c1N(CCCOc1ccc(C(C)(C)C)cc1)C(=O)C2=O", "Potency": "inconclusive: 5.01 µM [falling, single point]"}, {"smiles": "CCN(CC)c1ccc(/C=C(/C#N)c2nc3ccccc3[nH]2)c(OC(C)C)c1", "Potency": "inconclusive: 11.2 µM [fluorescent, partial curve]"}, {"smiles": "CCN(CC)c1ccc(/C=N/NC(=O)c2cnccn2)cc1", "Potency": "inconclusive: 28.2 µM [fluorescent, single point]"}, {"smiles": "C#CCOCCOCCOCCNc1nc(N2CCN(C(=O)CCCCCCCCCCNC(=O)Cn3cc(CCCCCN)nn3)CC2)nc(N2CCN(C(=O)CCCCCCCCCCNC(=O)[C@H](CO)n3cc(CCCCCN)nn3)CC2)n1", "Potency": "inconclusive: 28.2 µM [falling, single point]"}]}]}
